Measurements taken from PubChem BioAssay AID493005 (National Center for Advancing Translational Sciences (NCATS), 2010).
Screen size: about 340,000 compounds; fewer than 10 were called active. The inconclusive results got no clear call from the source; some entries with a clear call stand among them for comparison. The call rests on the fitted dose curve; in most records, active means well fitted inhibition curve with a large enough effect in the main read-out, with a control signal flat (not every such curve was filed as active); inconclusive means small, poorly fitted or top-dose-only effect, or effect the other way, or a change in a side signal; inactive means no such curve, though single readings can be large or run the other way. Potencies of inconclusive entries are doubtful fits and often do not repeat. “Side channel” marks fits to a control or component signal instead of the main read-out.

Target: Tumor susceptibility gene 101 protein (Homo sapiens) (UniProt Q99816)
Experiment: qHTS Assay for Iinhibitors of HIV-1 Budding by Blocking the Interaction of PTAP/TSG101; on activity change, negative = inhibition: % of control where 0% means no effect
Details: Fluorescence polarization, FITC-PTAP peptide / Tsg101 binding; activity change, negative = inhibition: at 115 µM (top of the series)
Procedure, shortened: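 Fluorescence polarization binding of Tsg101 binding domain (10 uM final) to FITC-labeled PTAP peptide (50 nM final) in HEPES pH 7.5 buffer with NaCl, Tween 20, EDTA, TCEP. Compounds added before peptide; binding 20 min at RT.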
Potency means the concentration at half of the fitted maximal effect; tags describe the fitted curve by direction and shape or compound fluorescence and quenching.

Chain of UniProt Q99816 (Q99816 whole entry, looked up): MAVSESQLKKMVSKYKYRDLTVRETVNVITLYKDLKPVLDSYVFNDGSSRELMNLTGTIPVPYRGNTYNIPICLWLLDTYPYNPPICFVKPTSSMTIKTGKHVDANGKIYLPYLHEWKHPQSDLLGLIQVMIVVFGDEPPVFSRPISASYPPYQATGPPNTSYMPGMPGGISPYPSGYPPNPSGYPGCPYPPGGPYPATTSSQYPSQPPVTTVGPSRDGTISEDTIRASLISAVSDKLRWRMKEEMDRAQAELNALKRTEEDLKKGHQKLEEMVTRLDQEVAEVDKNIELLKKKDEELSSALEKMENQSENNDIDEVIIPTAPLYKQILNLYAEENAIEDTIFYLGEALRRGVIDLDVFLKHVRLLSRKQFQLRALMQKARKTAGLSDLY

Compound	activity change, negative = inhibition	Potency
CCCCC1=CC2=CC(=O)C(C)(OC(=O)CC)C(=O)C2=CN1Cc1ccc(OC)cc1 (stereo unspecified)	inactive: 3.85%	–
O=C(Nc1cc(F)c(Br)cc1F)c1ccc(Cl)cc1	inactive: -1.44%	–
Cc1cc(C)cc(NC(=O)c2cccn2-c2ncc(C(F)(F)F)cc2Cl)c1	–	inconclusive: 44.7 µM [quencher, side channel, partial curve, poor fit]
CN1CCCc2cc3c(C(F)(F)F)cc(=O)oc3nc21	–	inconclusive: 44.7 µM [fluorescent, side channel, partial curve, poor fit]
OCC[n+]1ccc(/C=C/c2c[nH]c3ccccc23)cc1	–	inconclusive: 56.2 µM [fluorescent, side channel, partial curve, poor fit]
Cc1ccc2[nH]c(=O)c3cc(C(=O)N(C)c4ccc(C)c(C)c4)sc3c2c1	inactive: -13.8%	–
O=c1[nH]c2ccccc2nc1/C=C/c1ccc(F)cc1	–	inconclusive: 50.1 µM [fluorescent, partial curve, poor fit]
CN(C)c1ccc(/C=C2\SC(N3CCCCC3)=NC2=O)cc1	–	inconclusive: 56.2 µM [fluorescent, side channel, partial curve, poor fit]
CCOc1cc2c(cc1/C=C/c1noc(C)c1[N+](=O)[O-])OC(C)C2 (stereo unspecified)	–	inconclusive: 56.2 µM [fluorescent, side channel, partial curve, poor fit]
O=C1CCCC2=C1Sc1ccc(Cl)cc1N2	–	inconclusive: 56.2 µM [fluorescent, side channel, partial curve, poor fit]
CCOc1ccc(NC(=S)NC23CC4CC(CC(C4)C2)C3)cc1	inactive: 0.0646%	–
CC(C(=O)O)C(=O)O	–	inconclusive: 56.2 µM [fluorescent, side channel, partial curve, poor fit]
C[n+]1ccc(/C=C/c2c[nH]c3ccccc23)cc1	–	inconclusive: 56.2 µM [fluorescent, side channel, partial curve, poor fit]
N#CC(C#N)=C1C=C2C=C(N3CCCCCC3)CCC2CC1 (stereo unspecified)	–	inconclusive: 28.2 µM [fluorescent, side channel, partial curve]
CC[n+]1c(/C=C/N(C)c2ccccc2)oc2ccc(F)cc21	–	inconclusive: 50.1 µM [fluorescent, side channel, partial curve, poor fit]
COc1ccc(/C=C2\SC(c3ccc(C)cc3)=NC2=O)cc1OC	–	inconclusive: 39.8 µM [fluorescent, side channel, partial curve]
